Source: the RNAGym collection of RNA variant scans (doi:10.7554/elife.90254)
Read counts are not given, so values of variants with three or more changes are uncertain.

B1: LINE1-mini (parent)
chain: GGCAGAGCUCAACACAGCGUGGCAAAGUGGCUGUGGCUAGACUGCC

Variants of: B1
Test: self-cleavage, relative activity (ratio to wild type); higher = more cleavage; in vitro, sequencing; the parent is a self-cleaving ribozyme

Variant | self-cleavage
U9A G22U G44A C45A | 0.3
U9C A12C U28C C42G | 0.01
U9A G22A U28C | 0.13
U9A G19U G21U C23U | 0.04
U9C A14G C18G A41U | 0.05
U9C A12U G29A G30C C31A | 0.01
U9C C10A A14C | 0.05
U9C C13U G30C G33C U34G | 0.01
U9C U43A C45A | 0.04
U9C C23U C31A | 0.02
U9C A11G G44U | 0.05
U9C G27C C31A C37U G44C | 0
U9C C15U G35U | 0.01
U9C G17U G30A C45G | 0.07
U9A G33A C37A | 0.09
U9A U34G C42A | 0.05
U9A G30U U34C C46G | 0.08
U9C A25C G35A G36U | 0.05
U9C C10A G35A | 0.03
U9A G22A A39U C45U | 0.04
U9A G27C C42A | 0.02
U9C C15A G33U C42U | 0.01
U9C A14U A16C G27U C37A | 0.01
U9C C31A C42U | 0.02

Variant | self-cleavage
U9C A14C G33U C46A | 0.01
U9C A11U A25C | 0.01
U9C A24U U34A G36C A41U | 0.01
U9C G19U G21C | 0.02
U9C A11G A25U G30U | 0.03
U9C A16G C23A | 0.04
U9C C15A G29A U32C C46G | 0.03
U9A U20C G36A | 0.17
U9C C10A G40U | 0.08
U9C G21A G36A C46G | 0.02
U9C U28G U32C | 0.03
U9C G35U C42A | 0.04
U9C G36A A41C | 0.06
U9C C13U C37A C42A | 0.01
U9C G40C U43C | 0.02
U9C C18U A26C | 0.02
U9C A11U C23A G44A | 0.01
U9C A12U G19A A24C G36C C46G | 0.01
U9C U20G G29A G33U | 0.02
U9A G27U G36U A41G | 0.05
U9C A11U A12G C13U G29A G35C | 0.01
U9C G22U G33A | 0.03
U9C A11C A16C G27A | 0.01
U9C A12G A39U | 0.01

Variant | self-cleavage
U9A U28G A41U | 0.3
U9A G29A G35U | 1.34
U9C G36A C46U | 0.02
U9C A16G C18G U20A A26G C37U G44A | 0
U9A G29U A41C U43C | 0.04
U9G A11C G17C U20C | 0.02
U9C G29U C37G A39G | 0.01
U9A G19A C23A | 0.28
U9A G30C G36U G44U | 0.03
U9C G19C G22A G27U U43G | 0
U9C G40U A41C | 0.01
U9A U20G A26G | 0.42
U9C G19C G30C | 0.01
U9C G22A A39C | 0.02
U9A G30C G36U C37A | 0.37
U9C A11C G21U G29A C45G | 0.01
U9C C31U C42U G44U | 0.02
U9A G17U A24G A39C | 0.02
U9A G27C C46G | 0.25
U9C A14G C31A | 0
U9A G22A C31U | 0.02
U9C G30U G36A U38G | 0.01
U9C A11U A14C U34G | 0.01
U9C C13G C15U G17A A24C A25U | 0.01

Variant | self-cleavage
U9A G30C G33C G36U A39U C42G C46A | 0
U9A G22C A24G G35U A41C | 0.06
U9C C18G A26G U28C U38C A39C C46U | 0.01
U9C A16C A39C U43A | 0
U9C C10U G21U | 0.04
U9C G27U G30C U32G A39G | 0.03
U9C A24C G36C A39U | 0.01
U9C G36U G44C | 0.07
U9C C10G C15U U20C A25U C31G G33U G44C | 0.01
U9A G19U G35U | 0.13
U9A G27U U38A G40A | 0.13
U9C G21C U28G | 0.01
U9C A41C G44U | 0.04
U9A G27A C31A C37U | 0.23
U9A G35C C37G A39G | 0.11
U9A G17U C18U A26G | 0.03
U9C U20A C45A C46G | 0.03
U9C A12U G19U G22U C23U G30A | 0.01
U9C U20A C46G | 0.05
U9C U20A C46U | 0.02
U9C C13U C15A G30A U38G | 0.01
U9C G17A G35A A39U G44A C46U | 0.03
U9C G19A U34C C46A | 0.01
U9C C18G G29A | 0.02

Variant | self-cleavage
U9A G40A U43A | 0.17
U9A G27A G40U | 0.14
U9C G17A A26U | 0.02
U9C G22U A41G C46A | 0.02
U9C G21C C46A | 0.02
U9C C18U G21U U43A C46U | 0.04
U9C C10U C18U G19U A24G G27U | 0.02
U9A G29U U34A U38A C45A | 0.66
U9C C18G U20G G33C C42A U43A | 0
U9A G29U G30U | 0.19
U9C A14G A26C G30A U32A G36C | 0.04
U9C A12G U20G U28C | 0.01
U9A U20A U43C C45U | 0.04
U9A G21C G35U A41G | 0.27
U9A G44A C45A | 0.11
U9C U32G G36C | 0
U9C G17U G40U C46A | 0.32
U9C C13U C18U A41G | 0.02
U9C A25G G44A | 0.07
U9A G22C C37G | 0
U9C C10G A26C | 0
U9C A11C A12G | 0.01
U9C A14U A16U G27U | 0.05
U9C A11U A12G G19C U20C U38C U43C | 0.01

Variant | self-cleavage
U9A U20A A26C G27U U32C G40U | 0.07
U9A G19C U20A | 0.05
U9C G17C U43C | 0.01
U9A G21C C31U U38G G44U | 0
U9A U34G C45A | 0.1
U9C C13A A14U U20C | 0.03
U9C A14C U20G | 0.02
U9C C10U A26U G36A C37A | 0.02
U9C A11G C15A G22A U32A G44U | 0.01
U9A G29A C45G | 0.72
U9A G30U C31U U34G G36A U38A C45A | 0.07
U9A U28G G29U C37U G40U U43C C46U | 0.02
U9A U20G A25U | 0.06
U9C G33A G35C C46A | 0.01
U9C C13A G33C U38A | 0.02
U9A G21C G27U G35U A39C | 0.04
U9C A11U U28A | 0.01
U9C A16G C18U G40C | 0.04
U9C C15A G27U G30C C31A | 0.03
U9C C23U G40A | 0.02
U9A G19U C31U G44C | 0.01
U9C C23U G36A | 0.02
U9C C10G U43A | 0
U9C U28G G30U | 0.01

Variant | self-cleavage
U9C C13A C15G G36U G40A A41U | 0.02
U9C U20C G29C C46A | 0.02
U9A G19A C45A | 0.28
U9A U34G A41C | 0.05
U9A G21A C42A | 0.38
U9C A26C C45A | 0.03
U9C G19U C37U A41U | 0.02
U9A G30A G33C | 0.01
U9C G27U U28C | 0.02
U9A G21U C37G | 0.06
U9C A14G A16G C23G A26G G36U A39G | 0
U9A G21U G35U | 0.04
U9C C15A G17U | 0.02
U9G A11C G30C C31A U43A G44U | 0.01
U9A G21U A24U C46U | 0.07
U9C U32C G33A | 0.05
U9C C15U C45U | 0.03
U9C G19A C37G | 0
U9A G22A C23A G27C A41G C42G | 0.44
U9C A14U C15U U34G | 0.01
U9C A24G C31G | 0.02
U9C C23U G27C G30U | 0.01
U9G A11C A41U | 0.01
